Displacement data for 67 molecules are collected here from PubChem BioAssay AID1240 (Sanford-Burnham Center for Chemical Genomics, 2008).

About 800 (1.6%) of roughly 50,000 compounds showed an effect of 50% or more. The list shows a part of the results.

This test has as its target Bcl-2-like protein 10 (Homo sapiens) (UniProt Q9HD36). The test is described as follows: Phenotype converters, Bcl-B/TR3 peptide binding displacement, primary biochemical FP (AID 1240).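 Further: 0% = Bcl-B with tracer peptide and DMSO and 100% = tracer peptide lacking Bcl-B.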 The following applies: GST-Bcl-B / FITC-TR3 peptide fluorescence polarization; stronger effect = higher value; compound at 3.75 mg/L. Background: In fluorescence polarisation assays a small probe gives low polarisation when free and higher when bound to something large.
Sequence of UniProt Q9HD36 (Q9HD36 whole entry, looked up): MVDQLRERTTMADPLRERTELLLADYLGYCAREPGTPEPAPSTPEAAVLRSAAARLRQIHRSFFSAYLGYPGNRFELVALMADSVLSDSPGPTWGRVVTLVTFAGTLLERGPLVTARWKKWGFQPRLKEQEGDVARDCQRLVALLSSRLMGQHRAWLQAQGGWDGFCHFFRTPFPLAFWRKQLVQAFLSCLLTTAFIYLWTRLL
Consider `NC1=NC(=O)/C(=C/c2ccccc2OS(=O)(=O)c2ccc([N+](=O)[O-])cc2)S1`, for which the displacement is -5.2%.
Under `O=C(NCc1cccnc1)C(=O)Nc1ccc(Cl)c(C(F)(F)F)c1` stands -8.3%.
Regarding `CCCc1ccc(OCC(=O)Nc2cc(S(=O)(=O)CC)ccc2O)cc1`, the displacement was found to be 9.2%.
For the molecule `COC(=O)C1=C(O)/C(=C/c2ccc(OCC(=O)Nc3ccccc3OC)cc2)N=C1C`, the displacement is 30.1%.
Next, `CC1=CC(C)(C)N(Cc2ccc([N+](=O)[O-])cc2)c2cc(C)ccc21`: 10%.
As for `O=C(/C=C/c1ccc([N+](=O)[O-])cc1)Nc1ccc(Cl)c(Cl)c1`, the displacement was -5%.
On to `CCOc1ccccc1NC1=C(Cl)C(=O)N(c2ccc(C)cc2)C1=O`, for which the displacement turned out to be 13.7%.
Regarding `CC(=O)Nc1ccc(/C=C(/C#N)C(=O)NCc2ccco2)cc1`, the displacement was determined as 9.4%.
Next, `O=C(Nc1cccc([N+](=O)[O-])c1)c1ccc2c(c1)C(=O)N(N1C(=O)c3ccccc3C1=O)C2=O`: -1.8%; `C/C(=N\NC(=O)Cc1ccc(Cl)cc1)c1ccc(Cl)s1`: 4.5%; `CCN(C(=O)c1cc(OC)c(OC)c(OC)c1)c1ccccc1`: -1.9%.
For the molecule `CCOC(=O)c1c(NC(=O)c2ccc(Cl)cc2)sc2ccccc12`, the displacement was determined as 39.1%.
Next, `Cc1ccc([N+](=O)[O-])cc1/C=C1/C=C(c2ccccc2)OC1=O`: -1.9%; `COC(=O)C1=C(C)N(C)C(C)=C(C(=O)OC)C1c1ccccc1`: 7.7%.
Turning to `O=C(c1ccco1)N1CCN(c2ccc([N+](=O)[O-])cc2Cl)CC1`, the displacement is -0.7%.
Consider `Cc1cc(C)n(-c2cc(N3CCOCC3)ncn2)n1`, for which the displacement is -8.6%.
On to `CCOC(=O)/C(=C/Nc1c(C)n(C)n(-c2ccccc2)c1=O)[N+](=O)[O-]`, for which the displacement was -6.8%.
For the molecule `COc1cccc(-c2nc3sc4c(c3c(=O)[nH]2)CCCC4)c1O`, the displacement is -17.7%.
As to `CSc1ccc(/C=C2\C(=O)NC(=O)N(c3ccc(Cl)cc3)C2=O)cc1`, the displacement was determined as 1.6%.
On to `O=C1CC(N2CCN(c3ccccc3Cl)CC2)C(=O)N1c1ccc(Cl)cc1` (configuration not stated), for which the displacement amounted to 4.5%.
`O=C1OC(c2cccc(F)c2)=N/C1=C\c1ccc(F)cc1`: the displacement was -2.2%.
As for `O=C(CN1CCOCC1)NCC1COc2ccccc2O1` (configuration not stated), the displacement is -15.8%.
Take `COc1cc(/C=C2\C(=O)NN(c3ccccc3)C2=O)ccc1OCc1ccccc1F`: the displacement was 8.9%.
Turning to `CS(=O)(=O)N(CC(=O)NCCc1ccccc1)c1cc(Cl)cc(Cl)c1`, the displacement came out at 11.3%.
As to `CC(C)(C)C(=O)Oc1ccc2c3c(c(=O)oc2c1)CCC3`, the displacement was found to be 4.5%.
Next, `O=C1NC(=Nc2cccnc2)S/C1=C\c1ccccc1Cl`: 3%.
As to `CSCCC(NC(=O)c1ccccc1)C(=O)OCC(=O)Nc1cc(C)on1` (configuration not stated), the displacement turned out to be 6.4%.
Under `Cc1cc(OCC(=O)Nc2ccc(I)cc2Cl)cc(C)c1Cl` stands -3.6%.
Turning to `Cc1cc(/C=N/NC(N)=O)c(C)n1C1CCCCC1`, the displacement is 29.3%.
`O=[N+]([O-])c1ccc(Cl)cc1NCCc1ccccc1`: the displacement amounted to 14.5%.
On to `CCOC(=O)C1CCN(C(=O)c2ccc(C#Cc3ccccc3)cc2)CC1`, for which the displacement is -1.7%.
Next, `Cc1nn(-c2ccccc2)c2c1C(c1cccc(O)c1)C(C#N)=C(N)O2` (configuration not stated): 3.7%; `O=C(N/N=C/c1c(Cl)cccc1Cl)c1cc(-c2ccc(Br)cc2)n[nH]1`: -13.7%; `COc1ccc(C2C(C#N)=C(N)OC3=C2C(=O)CC(C)(C)C3)c2ccccc12` (configuration not stated): -6%.
As for `c1ccc(Oc2cccc(OCCCCCCN3CCOCC3)c2)cc1`, the displacement is 6.9%.
Take `COc1ccc(S(=O)(=O)N2CCN(C3CCCC(C)C3)CC2)cc1` (configuration not stated): the displacement turned out to be 10.6%.
For `CCOc1cccc(C(=O)Nc2nnc(C(c3ccccc3)c3ccccc3)s2)c1`, the displacement is 15.1%.
Consider `Cc1ccc(OCC(=O)Nc2sc3c(c2C(N)=O)CCC(C)C3)cc1C` (configuration not stated), for which the displacement stood at 1.8%.
Under `CCN(CC)C(=O)c1sc(NC(=O)COc2ccc3ccccc3c2)c(C(=O)OC(C)C)c1C` stands 11.4%.
As to `COC(=O)c1c(C)oc2ccc(NS(=O)(=O)c3cccc([N+](=O)[O-])c3)cc12`, the displacement amounted to 2%.
For `O=C(c1ccc2c(c1)OCCO2)N1CCN(c2ccc([N+](=O)[O-])cc2Cl)CC1`, the displacement was 1.2%.
Turning to `COc1ccc(Br)cc1C(=O)Nc1ccc(Cl)cn1`, the displacement was determined as 15.6%.
Next, `O=C(Nc1nc2ccc(Cl)cc2s1)c1ccccc1F`: 6.5%; `O=[N+]([O-])c1ccc(CNC2CCCc3ccccc32)cc1` (configuration not stated): -1.1%; `O=C(c1cccs1)N1CCN(c2cc(N3CCCCC3)c(F)cc2[N+](=O)[O-])CC1`: -5.9%.
In the case of `CC1(C)Cc2ccccc2C(/C(=N\O)C(=O)c2ccccc2)=N1`, the displacement amounted to 13.1%.
Under `N/C(Cc1ccc([N+](=O)[O-])cc1)=N\OC(=O)c1cccc(I)c1` stands 12.3%; under `CCOC(=O)c1c(NC(=S)NCCc2ccccc2)sc2c1CC(C)(C)OC2`, -8.3%; under `O=C(Nc1ccccc1)c1cc(Br)ccc1Cl`, 18.4%.
Next, `O=C1N=c2ccc(Cl)cc2=C1c1sc(=O)n(-c2ccccc2)c1O`: -23.7%; `CCc1ccccc1NC(=O)c1c(NC(=O)c2cccs2)sc2c1CCC2`: -3.8%; `COC(=O)c1c(C)oc2ccc(OCC(N)=O)cc12`: 11.7%.
In the case of `C=CCN1C(=O)/C(=C\c2ccc(OCc3cccc4ccccc34)cc2)SC1=S`, the displacement amounted to 87.1%.
Take `Cc1ccc(C)c(N(CC(=O)Nc2cc(Cl)ccc2C)S(=O)(=O)c2ccccc2)c1`: the displacement is -7.5%.
For the molecule `O=C(N/N=C/c1ccncc1)c1cc(-c2ccccc2)n[nH]1`, the displacement is -11.4%.
As for `COc1ccccc1NC(=O)/C(=C/c1cccc([N+](=O)[O-])c1)NC(=O)c1ccccc1`, the displacement is 2.3%.
Next, `COc1ccc2oc(C)c(C(O)c3ccccc3)c2c1` (configuration not stated): 0.2%; `CCc1ccccc1N(CC(=O)NCCc1ccccc1)S(C)(=O)=O`: 2.8%.
Consider `COCCOC(=O)c1ccc(NC(=O)Nc2ccc(Cl)cc2)cc1`, for which the displacement came to 2.8%.
For `O=c1cc(-c2ccccc2)nc(NNc2ccccc2)[nH]1`, the displacement is -4.1%.
On to `O=C(NC(=S)N1CCOCC1)C12CC3CC(CC(C3)C1)C2`, for which the displacement came to 3.6%.
Consider `Cc1ccc(N(CC(=O)O)S(=O)(=O)c2ccc(F)cc2)cc1`, for which the displacement came to 8.4%.
In the case of `COC(=O)COc1ccc(/C=C2\C(=O)NC(=O)N(c3ccc(OC)cc3)C2=O)cc1OC`, the displacement is -17.1%.
Take `O=C(O)COc1ccc(N2C(=O)c3ccc(C(=O)O)cc3C2=O)cc1`: the displacement was found to be 8.1%.
`COc1ccc(C(=O)Nc2cccc(C(=O)Nc3cccc(Cl)c3)c2)cc1`: the displacement is -9.3%.
As for `COC(=O)COc1ccc(/C=C2\C(=O)NC(=O)N(c3ccc(Br)cc3)C2=O)cc1OC`, the displacement turned out to be 7.5%.
Under `COC(=O)C1=C(C)N=c2s/c(=C\c3cc(Br)c(OC)cc3OC)c(=O)n2C1c1ccccc1` (configuration not stated) stands 15.7%.
